Measurements: the supplement of paper PMC4604168 (melanoma cell lines)
Some of the results follow. Most values come without repeats; read them as rough.

Tests used:
Assay in all cases: cell count relative to DMSO control; melanoma cells; higher = more viable cells
Details in all cases: library dose: low library concentration; 72 h
MZ2-MEL = test system: MZ2-MEL
MeWo = test system: MeWo
RPMI7951 = test system: RPMI7951
RVH-421 = test system: RVH-421
SkMel28 = test system: SkMel28
SkMel2 = test system: SkMel2
SkMel30 = test system: SkMel30
SkMel5 = test system: SkMel5
UACC257 = test system: UACC257
UACC62 = test system: UACC62
WM115 = test system: WM115
WM1716 = test system: WM1716
WM1745 = test system: WM1745
WM3526 = test system: WM3526
WM3619 = test system: WM3619
WM451Lu = test system: WM451Lu
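Note: cell number obtained by counting DAPI-stained nuclei in high-throughput microscope images with image analysis software, screen run in 1,536-well plates.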

Row | SMILES | cell count (MZ2-MEL) | cell count (MeWo) | cell count (RPMI7951) | cell count (RVH-421) | cell count (SkMel28) | cell count (SkMel2) | cell count (SkMel30) | cell count (SkMel5) | cell count (UACC257) | cell count (UACC62) | cell count (WM115) | cell count (WM1716) | cell count (WM1745) | cell count (WM3526) | cell count (WM3619) | cell count (WM451Lu)
1 | C=CCNC1=C2C[C@@H](C)C[C@H](OC)[C@H](O)[C@@H](C)/C=C(\C)[C@H](OC(N)=O)[C@@H](OC)/C=C\C=C(/C)C(=O)NC(=CC1=O)C2=O [Tanespimycin] + O=S(=O)(c1ccccc1)N(CC(F)(F)F)c1ccc(C(O)(C(F)(F)F)C(F)(F)F)cc1 [T0901317] (first compound 0.002 µM, partner dose 1.4 µM) | 97.9% | 86.3% | 99.6% | 98.3% | 105% | 84.1% | 83.7% | 85% | 90.9% | 86.5% | 76.3% | 96.4% | 74.3% | 87.4% | 104% | 91%
2 | CS(=O)(=O)CCNCc1ccc(-c2ccc3ncnc(Nc4ccc(OCc5cccc(F)c5)c(Cl)c4)c3c2)o1 [lapatinib] + O=C(Nc1ccccc1)c1cc([N+](=O)[O-])ccc1Cl [GW9662] (first compound 0.8 µM, partner dose 2 µM) | 86% | 90.3% | 105% | 103% | 103% | 99.8% | 97.9% | 99.2% | 101% | 101% | 110% | 102% | 82.6% | 114% | 102% | 93.9%
3 | C[C@@H](Oc1cc(-c2cnn(C3CCNCC3)c2)cnc1N)c1c(Cl)ccc(F)c1Cl [Crizotinib] + CC(C)CCN1c2nc(Nc3cc(F)c(O)c(F)c3)ncc2N(C)C(=O)C1C [BID1870] (first compound 0.2 µM, partner dose 0.2 µM) | 103% | 97.9% | 91.5% | 116% | 88.7% | 94.8% | 122% | 97.8% | 75.2% | 77.7% | 93.8% | 95.4% | 104% | 126% | 111% | 112%
4 | CN1CCN(c2ccc3nc(-c4c(N)c5c(F)cccc5[nH]c4=O)[nH]c3c2)CC1 [Dovitinib] + c1cc(-c2cnn3cc(-c4ccc(OCCN5CCCCC5)cc4)cnc23)ccn1 [Dorsomorphin] (first compound 0.1 µM, partner dose 0.4 µM) | 103% | 86.8% | 100% | 99.5% | 96.4% | 126% | 54.6% | 81% | 92.3% | 82% | 89% | 113% | 84.9% | 41% | 112% | 110%
5 | C[C@@H](Oc1cc(-c2cnn(C3CCNCC3)c2)cnc1N)c1c(Cl)ccc(F)c1Cl [Crizotinib] + C=CCn1c(=O)c2cnc(Nc3ccc(N4CCN(C)CC4)cc3)nc2n1-c1cccc(C(C)(C)O)n1 [MK1775] (first compound 0.2 µM, partner dose 0.02 µM) | 106% | 91.3% | 112% | 64% | 85.5% | 91.9% | 95.6% | 84.7% | 83.5% | 92.6% | 70.4% | 88.7% | 85.4% | 87.4% | 69.3% | 121%
6 | CNC(=O)c1cc(Oc2ccc(NC(=O)Nc3ccc(Cl)c(C(F)(F)F)c3)cc2)ccn1 [sorafenib] + CO[C@@H]1[C@H](N(C)C(=O)c2ccccc2)C[C@H]2O[C@]1(C)n1c3ccccc3c3c4c(c5c6ccccc6n2c5c31)C(=O)NC4 [Midostaurin] (first compound 0.4 µM, partner dose 0.08 µM) | 94.2% | 79% | 58.2% | 81.3% | 92.2% | 83.7% | 92.3% | 72.6% | 55.4% | 77.8% | 80.6% | 63.5% | 70.5% | 92.5% | 73.8% | 111%
7 | CS(=O)(=O)CCNCc1ccc(-c2ccc3ncnc(Nc4ccc(OCc5cccc(F)c5)c(Cl)c4)c3c2)o1 [lapatinib] + C=CCn1c(=O)c2cnc(Nc3ccc(N4CCN(C)CC4)cc3)nc2n1-c1cccc(C(C)(C)O)n1 [MK1775] (first compound 0.8 µM, partner dose 0.02 µM) | 106% | 88.1% | 94.1% | 81.2% | 100% | 93.6% | 92.4% | 104% | 82.8% | 81.4% | 88.9% | 84% | 89.1% | 103% | 79.9% | 117%
8 | CS(=O)(=O)CCNCc1ccc(-c2ccc3ncnc(Nc4ccc(OCc5cccc(F)c5)c(Cl)c4)c3c2)o1 [lapatinib] + CN(NC(=O)CC(=O)NN(C)C(=S)c1ccccc1)C(=S)c1ccccc1 [STA4783] (first compound 0.8 µM, partner dose 0.006 µM) | 107% | 88.2% | 106% | 71.9% | 112% | 75.4% | 98% | 94.3% | 73.4% | 89.4% | 83.8% | 80.8% | 50.2% | 103% | 59.4% | 88.8%
9 | C=CCNC1=C2C[C@@H](C)C[C@H](OC)[C@H](O)[C@@H](C)/C=C(\C)[C@H](OC(N)=O)[C@@H](OC)/C=C\C=C(/C)C(=O)NC(=CC1=O)C2=O [Tanespimycin] + O=c1cc(-c2cccc3c2Sc2ccccc2S3)oc(N2CCOCC2)c1 [KU55933] (first compound 0.002 µM, partner dose 1 µM) | 99.1% | 99.7% | 78.9% | 96.3% | 83.3% | 93.6% | 92.8% | 106% | 111% | 95.1% | 86.7% | 116% | 70% | 75.5% | 56.5% | 90.3%
10 | CN1CCN(c2ccc3nc(-c4c(N)c5c(F)cccc5[nH]c4=O)[nH]c3c2)CC1 [Dovitinib] + O=C(CCCCCCC(=O)Nc1ccccc1)NO [vorinostat] (first compound 0.1 µM, partner dose 0.08 µM) | 88.4% | 75.3% | 107% | 133% | 65.1% | 99.4% | 52.3% | 79.1% | 80.3% | 90.7% | 94.7% | 115% | 93.3% | 79.8% | 114% | 80.9%
11 | CS(=O)(=O)CCNCc1ccc(-c2ccc3ncnc(Nc4ccc(OCc5cccc(F)c5)c(Cl)c4)c3c2)o1 [lapatinib] + O=C(CCCCCCC(=O)Nc1ccccc1)NO [vorinostat] (first compound 0.8 µM, partner dose 0.08 µM) | 99.4% | 95.7% | 87.8% | 92.3% | 86.1% | 104% | 77.7% | 89.3% | 98.3% | 87.2% | 84.4% | 119% | 96.4% | 86.2% | 84.8% | 88.1%
12 | C=CCNC1=C2C[C@@H](C)C[C@H](OC)[C@H](O)[C@@H](C)/C=C(\C)[C@H](OC(N)=O)[C@@H](OC)/C=C\C=C(/C)C(=O)NC(=CC1=O)C2=O [Tanespimycin] + O=C(O)C(=O)Nc1sc2c(c1C(=O)O)CCNC2 [TCS401] (first compound 0.002 µM, partner dose 1.66667 µM) | 103% | 94.9% | 86.9% | 191% | 88.1% | 96.3% | 96.3% | 98.5% | 95.7% | 91.6% | 98.4% | 109% | 85.3% | 88.2% | 117% | 65.6%
13 | C=CCNC1=C2C[C@@H](C)C[C@H](OC)[C@H](O)[C@@H](C)/C=C(\C)[C@H](OC(N)=O)[C@@H](OC)/C=C\C=C(/C)C(=O)NC(=CC1=O)C2=O [Tanespimycin] + COc1cc2c(Oc3ccc4[nH]c(C)cc4c3F)ncnc2cc1OCCCN1CCCC1 [cediranib] (first compound 0.002 µM, partner dose 0.4 µM) | 103% | 88.5% | 116% | 96.5% | 94.4% | 93.1% | 109% | 102% | 122% | 91.3% | 90.8% | 104% | 1.23% | 85.4% | 107% | 94.7%
14 | C=CCNC1=C2C[C@@H](C)C[C@H](OC)[C@H](O)[C@@H](C)/C=C(\C)[C@H](OC(N)=O)[C@@H](OC)/C=C\C=C(/C)C(=O)NC(=CC1=O)C2=O [Tanespimycin] + CCCCCCCCCCCC1=C(O)C(=O)C=C(O)C1=O [Embelin] (first compound 0.002 µM, partner dose 1.2 µM) | 104% | 99.5% | 110% | 101% | 91.1% | 102% | 95.1% | 96.3% | 101% | 95.2% | 93.3% | 93.7% | 102% | 73.4% | 111% | 37.5%
15 | CS(=O)(=O)CCNCc1ccc(-c2ccc3ncnc(Nc4ccc(OCc5cccc(F)c5)c(Cl)c4)c3c2)o1 [lapatinib] + O=C(O)c1ccc(-c2c[nH]c3ncc(-c4ccccc4)cc23)cc1C1CCCC1 [GSK650394] (first compound 0.8 µM, partner dose 0.16 µM) | 91.4% | 94.9% | 128% | 114% | 82.2% | 101% | 100% | 95.8% | 97.2% | 86.2% | 114% | 108% | 111% | 92.1% | 121% | 86.6%
16 | C[C@@H](Oc1cc(-c2cnn(C3CCNCC3)c2)cnc1N)c1c(Cl)ccc(F)c1Cl [Crizotinib] + COc1ccc2c(c1)CCC1C2CCC2(C)C(NCCCCCCN3C(=O)C=CC3=O)CCC12 [U73122] (first compound 0.2 µM, partner dose 0.4 µM) | 97.6% | 106% | 95.2% | 65.1% | 97.8% | 93.2% | 114% | 99.6% | 94.8% | 90.7% | 95.2% | 90% | 95.5% | 100% | 89.8% | 96.1%
17 | CS(=O)(=O)CCNCc1ccc(-c2ccc3ncnc(Nc4ccc(OCc5cccc(F)c5)c(Cl)c4)c3c2)o1 [lapatinib] + CN(C)S(=O)(=O)c1ccc2c(c1)/C(=C/c1cc3c([nH]1)CCCC3)C(=O)N2 [SU6656] (first compound 0.8 µM, partner dose 0.4 µM) | 115% | 89.6% | 83.3% | 84.2% | 82.7% | 110% | 104% | 90.7% | 76.4% | 96.8% | 79.8% | 123% | 98.1% | 102% | 110% | 104%
